The target of assay [1] is KSHV latency-associated nuclear antigen (LANA), V5-tagged, wild type (Kaposi's sarcoma-associated herpesvirus (KSHV)) (UniProt Q9QR71). The experiment in a line: co-IP; 293T cells co-transfected with LANA and Flag-tagged F-box/WD repeat constructs; IP anti-V5, IB anti-Flag.
For assay [2], the target named is endogenous FBW7 (human (endogenous in BJAB and BCBL-1)) (UniProt Q969H0). The assay is described as follows: co-IP.
The target in assay [3] is F-box and WD repeat domain-containing 7 (FBW7), Flag-tagged (human) (UniProt Q969H0). The experiment in a line: co-IP; 293T cells co-transfected with Au/LANA (wild type or phosphorylation-dead mutants) and Flag/FBW7; IP anti-Flag, IB anti-Au (Fig 1B, 1D without phosphatase); antibodies of Fig 1E not named.
The target is the same in assay [4]. The assay is described as follows: condition: only cell lysates treated with λ-phosphatase; co-IP; 293T cells co-transfected with Au/LANA and Flag/FBW7; cell lysates treated with phosphatase (λ-phosphatase) before IP anti-Flag, IB anti-Au.
Assay [5] has the same target. The assay is described as follows: co-IP; competitive protein-binding assay: 293T cells transfected with combinations of LANA-WT (rising levels), LANA-P1, MCL-1 and FBW7, treated with CHX (20 μg/ml); IP anti-Flag, IB anti-V5 or anti-GST.
Assay [6] has as its target endogenous FBW7 (human (endogenous in BJAB and BCBL-1)) (UniProt Q969H0). The experiment in a line: co-IP; BJAB and BCBL-1 cells treated with MG132 (10 μM); IP of endogenous FBW7 with anti-FBW7, IB anti-LANA or anti-MCL-1.

Protein sequences, listed by entry. Tags and fused reporters are not part of them.
UniProt Q9QR71: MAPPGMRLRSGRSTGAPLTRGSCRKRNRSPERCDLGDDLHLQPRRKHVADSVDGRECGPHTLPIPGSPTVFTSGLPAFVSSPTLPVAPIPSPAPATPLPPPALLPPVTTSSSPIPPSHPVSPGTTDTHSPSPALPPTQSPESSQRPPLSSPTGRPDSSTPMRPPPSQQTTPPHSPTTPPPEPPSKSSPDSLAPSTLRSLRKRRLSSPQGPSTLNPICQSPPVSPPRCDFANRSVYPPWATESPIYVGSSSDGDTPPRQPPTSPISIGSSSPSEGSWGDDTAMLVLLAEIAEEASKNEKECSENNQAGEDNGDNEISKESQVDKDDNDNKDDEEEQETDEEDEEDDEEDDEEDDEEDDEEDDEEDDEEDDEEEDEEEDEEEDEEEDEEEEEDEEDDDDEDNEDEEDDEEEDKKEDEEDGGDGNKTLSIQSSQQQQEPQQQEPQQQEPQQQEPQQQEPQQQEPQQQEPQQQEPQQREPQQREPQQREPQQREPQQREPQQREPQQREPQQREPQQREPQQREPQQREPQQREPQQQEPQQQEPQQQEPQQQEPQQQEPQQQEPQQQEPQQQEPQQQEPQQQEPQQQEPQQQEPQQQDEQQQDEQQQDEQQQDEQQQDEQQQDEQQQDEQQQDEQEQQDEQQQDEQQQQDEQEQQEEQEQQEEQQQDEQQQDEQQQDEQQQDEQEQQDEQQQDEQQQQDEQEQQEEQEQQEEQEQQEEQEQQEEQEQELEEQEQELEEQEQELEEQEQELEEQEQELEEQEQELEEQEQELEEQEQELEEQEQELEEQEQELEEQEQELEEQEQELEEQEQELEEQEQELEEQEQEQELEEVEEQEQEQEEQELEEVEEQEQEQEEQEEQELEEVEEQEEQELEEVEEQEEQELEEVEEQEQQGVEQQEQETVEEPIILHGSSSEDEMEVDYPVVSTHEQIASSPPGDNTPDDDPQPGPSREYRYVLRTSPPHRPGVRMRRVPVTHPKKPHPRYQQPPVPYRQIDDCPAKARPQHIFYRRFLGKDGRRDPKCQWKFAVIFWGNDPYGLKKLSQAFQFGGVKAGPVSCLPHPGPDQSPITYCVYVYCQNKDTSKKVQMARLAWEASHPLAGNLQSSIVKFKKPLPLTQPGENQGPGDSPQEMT
UniProt Q969H0: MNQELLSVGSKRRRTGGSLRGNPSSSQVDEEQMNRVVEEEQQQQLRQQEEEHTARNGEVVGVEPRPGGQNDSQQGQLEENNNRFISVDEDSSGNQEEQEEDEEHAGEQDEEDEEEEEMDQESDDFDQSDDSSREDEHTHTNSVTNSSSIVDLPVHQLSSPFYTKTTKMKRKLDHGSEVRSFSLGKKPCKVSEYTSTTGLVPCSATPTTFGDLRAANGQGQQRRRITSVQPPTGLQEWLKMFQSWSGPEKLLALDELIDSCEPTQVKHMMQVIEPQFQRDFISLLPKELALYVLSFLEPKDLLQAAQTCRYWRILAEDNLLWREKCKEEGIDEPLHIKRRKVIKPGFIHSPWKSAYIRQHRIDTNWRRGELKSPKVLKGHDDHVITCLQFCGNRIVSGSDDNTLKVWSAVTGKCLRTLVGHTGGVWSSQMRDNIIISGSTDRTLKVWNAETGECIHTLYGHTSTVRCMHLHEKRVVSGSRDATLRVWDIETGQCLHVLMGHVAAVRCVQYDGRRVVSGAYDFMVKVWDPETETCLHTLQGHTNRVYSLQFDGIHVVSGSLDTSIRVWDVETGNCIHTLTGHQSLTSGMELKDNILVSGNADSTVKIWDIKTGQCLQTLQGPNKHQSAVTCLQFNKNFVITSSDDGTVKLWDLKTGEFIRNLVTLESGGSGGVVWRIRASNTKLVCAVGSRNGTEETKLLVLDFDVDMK
UniProt Q969U6: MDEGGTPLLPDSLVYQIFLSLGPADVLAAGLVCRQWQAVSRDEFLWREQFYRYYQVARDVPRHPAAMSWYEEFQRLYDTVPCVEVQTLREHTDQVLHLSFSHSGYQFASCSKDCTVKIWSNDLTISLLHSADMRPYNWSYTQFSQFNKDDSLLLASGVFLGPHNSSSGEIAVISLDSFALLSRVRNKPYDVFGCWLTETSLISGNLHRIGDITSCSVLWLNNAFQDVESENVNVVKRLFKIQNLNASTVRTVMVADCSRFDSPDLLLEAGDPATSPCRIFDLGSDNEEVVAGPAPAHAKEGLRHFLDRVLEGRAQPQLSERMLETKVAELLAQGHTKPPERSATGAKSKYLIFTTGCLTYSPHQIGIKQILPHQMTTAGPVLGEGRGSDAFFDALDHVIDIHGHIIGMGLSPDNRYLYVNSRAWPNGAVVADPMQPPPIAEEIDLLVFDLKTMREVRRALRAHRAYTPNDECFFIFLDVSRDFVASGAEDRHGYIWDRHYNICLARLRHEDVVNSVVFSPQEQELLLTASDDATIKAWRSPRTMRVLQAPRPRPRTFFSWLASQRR

No constants are given. Whether binding was seen depends on the method and setting. In cells and extracts the contact can be indirect. Some results given as binding are weak or reduced against the parent protein; the word gives no strength. For some of these results: Sequences can lack the tags named with a protein.

From article PMC7816990 come the findings set out here.

Regarding “FBW5, Flag-tagged (from UniProt Q969U6 1-566)”, the binding result in assay [1] is “no binding”. “KSHV LANA, Au-tagged, in tetracycline-inducible TREx/BJAB cells (from UniProt Q9QR71 1-1129)”: the binding entry in assay [2] is recorded as “binds”.

For “KSHV latency-associated nuclear antigen (LANA), Au-tagged, wild type (from UniProt Q9QR71 1-1129)”, the binding entry in assay [3] is “binds”; in assay [4], “no binding”. For “KSHV latency-associated nuclear antigen (LANA), V5-tagged, wild type (from UniProt Q9QR71 1-1129)”, the binding entry in assay [5] was “binds”. For the molecule “endogenous KSHV LANA of BCBL-1 cells (from UniProt Q9QR71 1-1129)”, the binding result in assay [6] is on record as “binds”.

B1: FBW2, Flag-tagged (protein, UniProt Q9UKT8 1-454)
chain: MERKDFETWLDNISVTFLSLTDLQKNETLDHLISLSGAVQLRHLSNNLETLLKRDFLKLLPLELSFYLLKWLDPQTLLTCCLVSKQWNKVISACTEVWQTACKNLGWQIDDSVQDALHWKKVYLKAILRMKQLEDHEAFETSSLIGHSARVYALYYKDGLLCTGSDDLSAKLWDVSTGQCVYGIQTHTCAAVKFDEQKLVTGSFDNTVACWEWSSGARTQHFRGHTGAVFSVDYNDELDILVSGSADFTVKVWALSAGTCLNTLTGHTEWVTKVVLQKCKVKSLLHSPGDYILLSADKYEIKIWPIGREINCKCLKTLSVSEDRSICLQPRLHFDGKYIVCSSALGLYQWDFASYDILRVIKTPEIANLALLGFGDIFALLFDNRYLYIMDLRTESLISRWPLPEYRKSKRGSSFLAGEASWLNGLDGHNDTGLVFATSMPDHSIHLVLWKEHG
For B1, the binding entry in assay [1] is listed as “no binding”.
